Sequences with one replicate were seen in a single cluster, so their values are uncertain.
Each sequence was assayed on ATP (assay: switch fluorescence ratio, 500 uM ATP over buffer (Cy3 cluster intensity, sum of 5 cycles each) (fold (ratio)); higher = stronger signal-on switching upon ATP binding; sequences stand for … in TCGTCGGCAGCGTCAGATGTGTATAAGAGACAGTTTTTTTTTTTTTTTTTTTTTTTTT…TC). Settings: aptamer strand: ATP DNA aptamer (quencher-CACCTGGGGGAGTATTGCGGAGGAAGG + anchor), 100 nM annealed; ATP concentration: 500 uM; one replicate.
Method in brief: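 The fluorescence ratio divides summed target-cycle Cy3 intensity by summed buffer-cycle Cy3 intensity for each cluster and is averaged per switch-domain sequence. Cy3-labelled switching-strand clusters on a modified Illumina MiSeq flow-cell were annealed to 100 nM quencher-labelled ATP aptamer, then imaged in selection buffer and again after 15 min with 500 uM ATP at 22 °C. Five such cycles were run, with NaOH stripping and re-annealing between them, and clusters outside 100-1000 RFU were excluded.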
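Note: ATP exposure 15 min at 22 °C before imaging.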

Sequence | switch fluorescence ratio
ATCAGACAAC | 1.04
ATCAGACTGA | 0.978
ATCAGCAAGA | 1.03
ATCAGCAGCA | 1.1
ATCAGCCCT | 1.04
ATCAGCGGCG | 0.967
ATCAGCTGGA | 1.05
ATCAGGCTTA | 1.03
ATCAGGTTG | 1.06
ATCAGTATGG | 0.981
ATCAGTGGGA | 0.989
ATCAGTTCGT | 0.977
ATCAGTTTG | 0.968
ATCATATACG | 1.03
ATCATCATCA | 1.03
ATCATTGATG | 1.03
ATCATTGGCA | 0.975
ATCCAAGAG | 1.07
ATCCAATAAT | 0.997
ATCCAATATA | 0.991
ATCCAGTCGC | 1.03
ATCCATTAAT | 1.01
ATCCCCGTTT | 1.01
ATCCCGCTCG | 1.04
ATCCCTGGCG | 1.01
ATCCGAGA | 2.68

Sequence | switch fluorescence ratio
ATCCGCCGAT | 1.42
ATCCGCGGTA | 1.13
ATCCGGAAAA | 1.08
ATCCGGAAAT | 1.08
ATCCGTCCGG | 0.993
ATCCGTGCGG | 1.01
ATCCTACCTA | 1.11
ATCCTCAAGC | 1.92
ATCCTCACAC | 1.33
ATCCTGTTCA | 0.997
ATCCTTGTGG | 1.03
ATCGAAAGGC | 1.09
ATCGAACGCC | 1.2
ATCGAACTGG | 0.97
ATCGAAGGCG | 0.929
ATCGAATCTA | 1
ATCGAATTGA | 0.985
ATCGACATGT | 1.01
ATCGACGACT | 1.02
ATCGACGCGT | 1.04
ATCGACTTAC | 1.39
ATCGACTTCG | 1
ATCGCATACC | 2.65
ATCGCCGGTA | 0.973
ATCGCGTCGG | 0.981
ATCGCTGCAA | 3.05

Sequence | switch fluorescence ratio
ATCGCTGCTA | 1.01
ATCGCTGTCG | 1.03
ATCGCTTCCG | 1.02
ATCGCTTTAG | 1.01
ATCGGAAATG | 0.952
ATCGGAACCC | 0.988
ATCGGACCCG | 1.01
ATCGGGCCTT | 0.975
ATCGGGGAAC | 1
ATCGGTAGG | 1.02
ATCGGTAT | 1.02
ATCGTAATAT | 1.36
ATCGTAGGG | 1.01
ATCGTAGTC | 1.03
ATCGTGAGTA | 0.99
ATCGTGATTT | 1.09
ATCGTGGGCT | 1.04
ATCTACAGTT | 1.02
ATCTAGAACG | 0.995
ATCTAGGTGG | 1.03
ATCTATTAAT | 1.03
ATCTCAATGT | 1.04
ATCTCACCGA | 1.02
ATCTCACGAC | 1.08
ATCTCATTGA | 0.926
ATCTCCCAAA | 1.2

Sequence | switch fluorescence ratio
ATCTCGACAC | 0.969
ATCTCGAGAG | 1.04
ATCTCGAGCC | 0.998
ATCTGAACCT | 1.96
ATCTGCACTT | 1.1
ATCTGCAGTT | 1.07
ATCTGCATAG | 1.52
ATCTGGGCCT | 1.05
ATCTGGTCCA | 0.991
ATCTGTGAAG | 0.988
ATCTGTTATA | 1.02
ATCTTAACAG | 1.01
ATCTTAATGA | 0.986
ATCTTACTCT | 1.1
ATCTTCATTA | 0.972
ATCTTGGTTT | 0.995
ATCTTTAGGG | 0.969
ATGAACAAAC | 1.05
ATGAACTGC | 0.978
ATGAAGGAGA | 1.01
ATGAAGGTTT | 0.992
ATGAAGTTGG | 0.995
ATGAATTGCG | 1.02
